From PubChem BioAssay AID1240 (Sanford-Burnham Center for Chemical Genomics, 2008)
The whole screen tested about 50,000 compounds, of which about 800 (1.6%) showed an effect of 50% or more. The list shows a part of the results.

biological target: Bcl-2-like protein 10 (Homo sapiens) (UniProt Q9HD36); test: Phenotype converters, Bcl-B/TR3 peptide binding displacement, primary biochemical FP (AID 1240); conditions: GST-Bcl-B / FITC-TR3 peptide fluorescence polarization; stronger effect = higher value; compound at 3.75 mg/L;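 note: 0% = Bcl-B with tracer peptide and DMSO and 100% = tracer peptide lacking Bcl-B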
Sequence of UniProt Q9HD36 (Q9HD36 whole entry, looked up): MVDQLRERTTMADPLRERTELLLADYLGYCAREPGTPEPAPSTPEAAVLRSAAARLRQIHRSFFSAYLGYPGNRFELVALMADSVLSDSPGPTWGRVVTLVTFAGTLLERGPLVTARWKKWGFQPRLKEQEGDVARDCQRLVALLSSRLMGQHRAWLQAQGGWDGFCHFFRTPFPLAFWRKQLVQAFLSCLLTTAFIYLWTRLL

SMILES | displacement [%]
Cc1ccc(NC(=O)CCCOc2ccccc2)cc1 | 1.9
Cc1ccc(C(=O)Nc2cccc3ccccc23)o1 | 16.6
COc1ccc(C(=O)NC(NC(=O)c2ccc(OC)c(OC)c2)c2ccc(Br)cc2)cc1OC | 8.2
COc1ccc(S(=O)(=O)N2CCN(C3CCC(C)CC3)CC2)cc1 (centres undefined) | -25.6
CC(=O)Nc1ccc(NS(=O)(=O)c2ccc(C(C)(C)C)cc2)cc1 | -0.2
O=[N+]([O-])OC12CC3CC(C1)CC([N+](=O)[O-])(C3)C2 | -6.9
Nc1cc(-c2ccc(Br)cc2)nn1C1CCCCC1 | -7.2
Cn1c(-c2ccco2)nc2c3ccccc3ccc21 | 9.9
Cc1onc(-c2ccccc2Cl)c1C(=O)N1CCC(Cc2ccccc2)CC1 | 7.1
Cc1ccc(S(=O)(=O)Nc2cc(C(=O)O)cc(C(=O)O)c2)cc1 | -2.1
COc1ccc(CC(=O)Nc2ccc(Cl)c(C(F)(F)F)c2)cc1OC | 6.1
Cc1ccccc1OCCn1cc(/C=C2/SC(=S)N(C)C2=O)c2ccccc21 | 11.6
Cc1ccc(NC2(c3ccc(Cl)cc3)C(=O)c3ccccc3C2=O)cc1 | 16.8
S=C(NCCC(c1ccccc1)c1ccccc1)Nc1ccc(Cl)cc1Cl | -4.5
O=[N+]([O-])c1ccc(-c2nc(Cc3ccccc3Cl)no2)cc1 | 10.2
CCOc1ccc(-c2cc(C(=O)OC)c3ccccc3n2)cc1 | -9.6
O=C(O)C(Cc1ccccc1)N1C(=O)/C(=C/c2ccccc2[N+](=O)[O-])SC1=S (centres undefined) | 38.3
Cc1cc(Oc2ccc([N+](=O)[O-])cc2)nc(-n2nc(C)cc2C)n1 | -4.5
Clc1cccc(Cl)c1OCCCCN1CCOCC1 | 2
Cc1ccc(-c2nc3ccccn3c2NC(=O)c2ccco2)cc1 | 10.8
CC(=C1C(=O)c2ccccc2C1=O)N1CCCC1 | 2
NC(=O)CCS(=O)(=O)c1ccccc1 | 5.4

SMILES | displacement [%]
Cc1ccsc1/C=C(/C#N)c1nc(-c2ccc(Cl)cc2)cs1 | 81.1
COc1ccc2c(c1)OCC/C2=N\OC(=O)c1ccc(C)cc1 | 14.3
COc1ccc(Cc2noc(-c3ccc(F)cc3)n2)cc1 | -4.8
Cc1cc(Br)ccc1N1C(=O)/C(=C/C=C/c2ccccc2)C(=O)NC1=S | -17
O=S1(=O)NC(=NC2CCCC2)c2ccccc21 | -2.6
COc1ccc(-c2cc(-c3ccccc3)nc(N/N=C/c3ccccc3F)n2)cc1 | -4.8
O=C(CSc1nc2ccccc2s1)Nc1ccccc1 | 7.4
O=S(=O)(NCC(c1ccccc1)N1CCCCC1)c1ccc(Cl)cc1 (centres undefined) | 9.4
CCN(CC)CCN1C(=O)C(O)=C(C(=O)/C=C/c2ccccc2)C1c1ccccc1OC (centres undefined) | -7.2
COc1ccc(COCC(O)CN2CCN(Cc3ccccc3)CC2)cc1OC (centres undefined) | 8.2
O=C(Nc1ccc(Cc2ccc(NC(=O)C(F)(F)F)c([N+](=O)[O-])c2)cc1[N+](=O)[O-])C(F)(F)F | 8.1
O=[N+]([O-])c1ccc(-c2ccc(N=Cc3nc(-c4ccccc4)oc3O)cc2)cc1 | 36.7
COC(=O)c1c(N)sc2c1CCCC2 | 10
O=C(Nc1ccc(-c2ccc(NC(=O)c3cccnc3)c(Cl)c2)cc1Cl)c1cccnc1 | 2.4
Oc1ccc2ccccc2c1CN1CCN(c2cccc(C(F)(F)F)c2)CC1 | 10.5
CCOc1ccc(NC(=O)c2ccc(S(=O)(=O)N3CCOCC3)cc2)c([N+](=O)[O-])c1 | 6.5
O=C(c1ccccc1F)N1CCN(Cc2ccco2)CC1 | -4.6
Cc1ccc(C(=O)NC(Nc2ccccc2C(F)(F)F)C(Cl)(Cl)Cl)cc1 (centres undefined) | -11.3
COCCN1C(=O)C(=O)/C(=C(/O)c2ccccc2)C1c1cc(OC)ccc1OC (centres undefined) | -25.2
O=C(CSc1nnnn1-c1ccccc1)c1ccc([N+](=O)[O-])cc1 | -12.7
CC1C(C(=O)N(C=O)c2ccccc2)C2C=CC1C21CC1 (centres undefined) | 11.4
COc1ccc(C=C2C(=O)NC(=O)N(c3cccc(OC)c3)C2=O)cc1 | 7.9

SMILES | displacement [%]
O=C(CSc1nnc(-c2cccc(F)c2)n1-c1ccccc1)NC(c1ccccc1)c1ccccc1 | -10.7
CCN(CC)CCCOc1ccc(Cl)cc1C | -5.3
CSC1=NC2(CCCCC2)CC12C=CC(=O)C=C2 | -7.1
CC(C)c1cccc(C(C)C)c1NC(=O)COc1ccccc1[N+](=O)[O-] | -5
CSc1ccccc1N1C(=O)C=CC1=O | 4.3
CCOC(=O)c1c(-c2ccccc2)oc2ccc(OCC(=O)C(C)(C)C)cc12 | 7.3
COC(=O)c1ccc(C(=O)OC)c(NC(=O)COc2cc(C)cc(C)c2)c1 | -5.7
COc1ccccc1/C=C1\SC(=S)N(NC(=O)c2ccccc2)C1=O | 3.9
COc1ccc(CCNC(=O)COc2ccc(C)cc2)cc1 | 1
COc1cc(NC(=O)/C=C/c2ccc(Cl)cc2)ccc1NC(=O)c1ccco1 | 10.1
O=C(O)/C(=C\c1ccc(Cl)cc1)NC(=O)c1ccco1 | -0.6
O=C(N/N=C/c1ccc(O)c(I)c1)c1cccc([N+](=O)[O-])c1 | 9.1
O=C(/C=C/c1ccc2c(c1)OCO2)Nc1ccccc1I | 3.8
O=S(=O)(N=C(Nc1ccccn1)c1ccccc1)c1ccc(Cl)cc1 | 8.5
COc1ccc(C(=O)CSc2nc(N)cc(=O)[nH]2)cc1[N+](=O)[O-] | 7.8
N#C/C(=C/C=C/c1ccco1)C(=O)Nc1cccc(Br)c1 | 59.3
Cc1ccc(C(=O)N/C(=C/c2cccc3ccccc23)C(=O)N2CCCC2)cc1 | 14.4
O=S(=O)(NC1C2CC3CC(C2)CC1C3)c1ccc(Cl)cc1 (centres undefined) | 0
Nc1c(S(=O)(=O)Cc2ccccc2)sc2nc3c(cc12)CCCC3 | -7.4
O=C(NCc1ccco1)c1cnn2c(-c3ccccc3)cc(-c3ccccc3)nc12 | 12.3
O=C(NC1CCCC1)c1sc2cc(Cl)ccc2c1Cl | -4.7
Cc1nnc(C)n1/N=C/c1c(O)ccc2ccccc12 | 10.2

SMILES | displacement [%]
O=C(N/N=C/c1ccncc1)c1cc(-c2ccc3ccccc3c2)n[nH]1 | -9.4
COc1cccc(C=C2C(=O)c3ccccc3C2=O)c1 | 20.2
NC(=O)c1cc2nc(-c3ccc(Cl)c(Cl)c3)cc(C(F)(F)F)n2n1 | 1.8
CCc1ccc(OCC(=O)Nc2ccc(-c3nc4ccccc4s3)c(O)c2)cc1 | 11.4
N#Cc1c(NC(=O)c2c(C(=O)O)cccc2[N+](=O)[O-])sc2c1CCCC2 | 7.3
O=C(Oc1ccc(Br)cc1C(=S)N1CCOCC1)c1ccc([N+](=O)[O-])cc1 | 7.3
O=[N+]([O-])c1ccc(Cl)cc1NCCOc1cccc2ccccc12 | 11.1
CCOC(=O)NC(NC(=S)Nc1ccc(OCC)cc1)C(Cl)(Cl)Cl (centres undefined) | -5.1
COC(=O)c1ccccc1NC(=O)COc1ccc(C)cc1C | 3.5
Cc1ccc(N2C(=O)C3C(C2=O)C2(C)C=CC3(C)O2)c([N+](=O)[O-])c1 (centres undefined) | 10.8
COC(=O)c1ccc(C(=O)OC)c(NC(=O)C(C)(C)C)c1 | 4.4
CCC1(C)NC(=S)N(c2nc(-c3ccccc3)cs2)N1 (centres undefined) | -18.9
Cn1c2c(c3cc(Cl)ccc31)CCCC2C#N (centres undefined) | 6.7
CCOc1ccc(C2=C/C(=C/c3ccc(OC)c(OC)c3)C(=O)O2)cc1 | 34.8
CS(=O)(=O)N/N=C/c1ccc2c(c1)OCO2 | 8.4
COc1ccc(S(=O)(=O)N(CC(=O)Nc2cccc(C(C)=O)c2)c2ccc(C)cc2)cc1OC | 9.1
c1ccc2sc(CCSCCc3nc4ccccc4s3)nc2c1 | -12.1
NC(=O)CSc1nc2sc3c(c2c(=O)n1-c1ccccc1)CCC3 | 4.5
O=C(c1cc(Cl)ccc1Cl)N1CCN(c2ccccc2)CC1 | 8.3
CCOCCOC(=O)c1ccc(NC(=O)c2ccc(Br)cc2)cc1 | 4
CC(Cc1ccccc1)N=C(N)/C(C#N)=C\c1[nH]c2ccccc2c1O (centres undefined) | 34.5
COc1ccc(C2C(C(=O)/C=C/c3ccccc3)=C(O)C(=O)N2CCCCCC(=O)O)cc1 (centres undefined) | -9.1

SMILES | displacement [%]
Cc1cccc(/C(N)=N/OC(=O)COc2ccc3ccccc3c2)c1 | -8
N#C/C(=C\c1ccccc1Cl)c1nc(-c2ccc(Cl)c(Cl)c2)cs1 | 1.1
Cc1ccc(N(Cc2ccc(C(=O)NC(C)(C)C)cc2)S(C)(=O)=O)cc1C | 4.5
CCOC(=O)/C=C1/NC2(CCCC2)Cc2cc(OC)c(OC)cc21 | 7.7
CC(=O)NC(c1ccccc1)C1C(=O)N(c2ccccc2)N=C1C (centres undefined) | 15.9
CN(C1=NS(=O)(=O)c2ccccc21)c1ccccc1 | 15.7
COc1ccccc1NC(=O)C1=C(C)NC(SCc2ccccc2)=C(C#N)C1c1ccco1 (centres undefined) | 4.2
O=C1Nc2c(S(=O)(=O)Nc3ccccc3)cc(S(=O)(=O)Nc3ccccc3)c3cccc1c23 | 9.4
Cc1c(Br)c(C(F)(F)F)nn1CC(=O)NCc1cccs1 | 0.7
CCOc1ccccc1/C=C/C(=O)c1ccc(Cl)cc1 | 0
COc1cccc(NC(=O)CSC(N)=O)c1 | 1
Cc1ccc(N2CC(C(=O)NCC(C)O)CC2=O)cc1 (centres undefined) | 11.9
COc1ccc(S(=O)(=O)N2CCN(Cc3ccc(F)cc3)CC2)cc1 | -4.6
Cc1ccc(OCC(=O)Nc2ccc(Cl)cc2C)c(Br)c1 | 10.6
Cc1cc2nc(-c3cc(NC(=O)c4ccc(Br)o4)ccc3Cl)oc2cc1C | -3.9
O=C1NC(=S)N(c2ccc(Cl)cc2)C(=O)/C1=C/c1ccc(N2CCOCC2)o1 | 3.2
Cc1ccc(-c2nn(-c3cc(N4CCN(CCO)CC4)ccc3[N+](=O)[O-])c(=O)c3ccccc23)cc1C | 7.4
CCOc1cc(C=C2C(=O)NC(=O)NC2=O)ccc1OS(=O)(=O)c1ccc(C)cc1 | 10.1
Cc1ccc2c(c1)NC(c1cccc(O)c1)C1=C(CC(C)(C)CC1=O)N2 (centres undefined) | 25.8
Cc1ccc(OC(=O)C(C)N2C(=O)c3ccccc3C2=O)cc1C (centres undefined) | 1.1
CC(C)COc1ccc(C(=O)Nc2ccc(Cl)cc2)cc1 | 13.1
